According to PubChem BioAssay AID1745853 (National Center for Advancing Translational Sciences (NCATS), 2022):
The list shows a part of the results. These are further read-outs of the screen, such as a control signal, another cell line or another target. No call is given for them.

How the values were obtained:
Test in all cases: Primary Screen for Target Class Profiling of Small Molecule Inhibitors of Methyltransferases
[1] = target: Glycine N-methyltransferase (Homo sapiens) (UniProt Q14749); conditions: purified enzyme, MTase-Glo SAH luminescence; measured here: GNMT inhibition; at 40 µM; stronger effect = lower value
Procedure, shortened: (§1)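 Each enzyme was assayed with SAM and its substrate. SAH formation detected by MTase-Glo luminescence; single-point 40 uM screen[…].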

[2] = target: Guanidinoacetate N-methyltransferase (Homo sapiens) (UniProt Q14353); conditions: purified enzyme, MTase-Glo SAH luminescence; measured here: GAMT inhibition; at 40 µM; stronger effect = lower value
Procedure, shortened: as §1

[3] = target: Histamine N-methyltransferase (Homo sapiens) (UniProt P50135); conditions: purified enzyme, MTase-Glo SAH luminescence; measured here: HNMT inhibition; at 40 µM; stronger effect = lower value
Procedure, shortened: as §1

[4] = target: Nicotinamide N-methyltransferase (Homo sapiens) (UniProt P40261); conditions: purified enzyme, MTase-Glo SAH luminescence; measured here: NNMT inhibition; at 40 µM; stronger effect = lower value
Procedure, shortened: as §1

[5] = target: Phenylethanolamine N-methyltransferase (Homo sapiens) (UniProt P11086); conditions: purified enzyme, MTase-Glo SAH luminescence; measured here: PNMT inhibition; at 40 µM; stronger effect = lower value
Procedure, shortened: as §1
% is scaled to controls: 0 for no effect and ±100 for the full control effect.

Row | SMILES | activity change, negative = inhibition [1] | activity change, negative = inhibition [2] | activity change, negative = inhibition [3] | activity change, negative = inhibition [4] | activity change, negative = inhibition [5]
1 | COc1ccccc1-c1cnc2n[nH]c(-c3ccc4c(c3)OCO4)c2n1 | -32% | -28% | -31.9% | -21% | -14.2%
2 | Cc1noc(C)c1Cc1ccc(C(=O)NC2CCc3nnc(C)n3CC2)o1 (stereo not given) | -4.58% | -2.94% | -1.77% | -10.5% | -4.54%
3 | O=C1NC2(CCCN(Cc3cncs3)C2)COc2ccccc21 (stereo not given) | -4.93% | -6.95% | -2.09% | -13.6% | -5.61%
4 | COc1cccc(NCc2nnc(C(=O)N3CCC[C@@H]3c3cccc(F)c3)n2-c2ccccc2)c1 | -4.59% | -1.31% | -1.95% | -11.2% | 7.43%
5 | CCCn1c(=O)c2ccc(C(=O)NC(C)CC)cc2n2c(=O)n(CC(=O)Nc3ccc(F)cc3)nc12 (stereo not given) | 1.34% | 0% | 1.04% | -4.06% | 4.2%
6 | CC1(C(=O)NC2CCCCCCC2)Cn2c(cc3occc32)C(=O)N1Cc1cccc(Cl)c1 (stereo not given) | -3.64% | 3.78% | -0.157% | -3.28% | -1.51%
7 | CC1(C(=O)NC2CCCCCC2)Cn2c(ccc2-c2ccco2)C(=O)N1Cc1ccccn1 (stereo not given) | -10.4% | 0% | 2.16% | -11.7% | 0.499%
8 | CCCn1c(=O)c2ccc(C(=O)NC(C)C)cc2n2c(SCC(=O)NCc3ccccc3)nnc12 | 3.61% | 0% | 2.41% | 0.948% | 3.02%
9 | CN1CCOc2c(C(=O)NCCc3cnc[nH]3)cc(-c3ccccc3F)cc21 | -24% | -7.4% | -24.7% | -31.5% | -1.76%
10 | COc1ccccc1CN1C(=O)c2cc(-c3ccccc3)nn2CC1(C)C(=O)NCc1ccccc1 (stereo not given) | 5.59% | 4.2% | 7.17% | 5.42% | 0.467%
11 | CCCCNC(=O)c1ncn2c1C(=O)N(CCC)C(C)(C(=O)NCc1ccc(C)cc1)C2 (stereo not given) | 2.52% | 0% | 4.98% | 6.61% | 4.11%
12 | COc1cc(OC)c(NC(=O)N2CCn3cccc3C2C(C)C)cc1Cl (stereo not given) | 15.8% | 0% | 8.26% | 9% | 9.87%
13 | CC(C)CNC(=O)c1ccc2c(=O)n(C)c3nn(Cc4ccc(F)cc4)c(=O)n3c2c1 | -8.08% | 3.28% | 0.752% | -1.25% | 2.06%
14 | COCc1cc(=O)n(CC(=O)NCc2ccc(OC)cc2)c(N2CCOCC2)n1 | -3.5% | -2.56% | -3.36% | -5.6% | 1.68%
15 | Cc1cc(C)cc(N2C(=O)c3cc(-c4ccco4)nn3CC2(C)C(=O)NC2CCCCC2)c1 (stereo not given) | -10.3% | -3.9% | 0.219% | -3.81% | -1.24%
16 | O=C(O)[C@H]1Cc2ccccc2CN1 | 2.44% | 6.42% | 8.07% | -6.12% | 4.61%
17 | Cn1c(=O)c2ccc(C(=O)NC3CCCCC3)cc2n2c(=O)n(CC(=O)NCc3ccc(F)cc3)nc12 | 7.21% | 0.89% | 9.37% | 5.5% | 8.36%
18 | C=C(C)C(=O)O[C@H]1[C@H]2C(=C)C(=O)O[C@@H]2C[C@@H](C)[C@@H]2O[C@@H]2C(=O)[C@](C)(O)[C@@H]1OC(C)=O | -0.312% | 4.04% | 3.94% | -8.52% | 0.844%
19 | CC1CCN(S(=O)(=O)c2ccc3c(ccn3CC(=O)NCCC3=CCCCC3)c2)CC1 | 5.61% | 4.02% | 6.85% | 2.81% | 0.02%
20 | Cn1nccc1C(=O)N1CCC(c2nc(CCOCC3CCCC3)no2)C1 (stereo not given) | 0.337% | -3.87% | 0.934% | 2.66% | -0.379%

Row | SMILES | activity change, negative = inhibition [1] | activity change, negative = inhibition [2] | activity change, negative = inhibition [3] | activity change, negative = inhibition [4] | activity change, negative = inhibition [5]
21 | CC(C)CNc1ccc2c(n1)C(C)(C(=O)NCc1cccnc1)CN(Cc1ccccc1)C2 (stereo not given) | -2.51% | 0.944% | -10.9% | -4.7% | 0.326%
22 | CN1CCN(C2=Nc3ccccc3Nc3ccc(O)cc32)CC1 | 0.641% | 1.99% | 7.29% | -14.3% | 2.04%
23 | O=C(N1CCCCCC1CN1CCOCC1)C1(c2ccccc2)CC1 (stereo not given) | -8.03% | -7.68% | -4.21% | -8.84% | 0.719%
24 | O=C(OC[C@H]1O[C@@H](Oc2ccccc2CO)[C@H](O)[C@@H](O)[C@@H]1O)c1ccccc1 | -0.62% | -0.636% | 8.87% | -13.3% | -7.36%
25 | Cc1ccc(NC(=O)Cn2nc3n(CCC(C)C)c(=O)c4ccc(C(=O)NC(C)C)cc4n3c2=O)cc1 | 9.93% | 1.32% | 10.2% | 10.1% | 6.12%
26 | CCC(C)NC(=O)c1ccc2c(=O)n(C)c3nn(CC(=O)NC4CCCC4)c(=O)n3c2c1 (stereo not given) | 6.49% | 6.34% | 9.16% | 2.06% | 3.61%
27 | Fc1ccc(-c2nc(-c3c(F)cccc3F)[nH]c2-c2ccncc2)cc1 | -35% | -12.2% | -26% | -34.7% | -16.9%
28 | CCCn1c(=O)c2[nH]c(-c3cnn(Cc4cccc(C(F)(F)F)c4)c3)nc2n(CC)c1=O | -1.46% | -1.28% | 5.64% | -17.1% | -0.122%
29 | CCC(CC)C(c1ccc(Nc2nc3ccccc3s2)cc1)n1cncn1 (stereo not given) | -10.2% | -41.7% | 1.31% | -59.3% | -4.21%
30 | COc1ccc(OC)c2c1cc1n2CC(C)(C(=O)NC2CCCC2)N(Cc2ccc(C)cc2)C1=O (stereo not given) | 1.92% | 0.184% | 5.87% | 0.514% | -1.57%
31 | CCn1nnc2c(N3CCOCC3)nc(-c3ccc(NC(=O)Nc4ccc(C(=O)N5CCN(C)CC5)cc4)cc3)nc21 | -1.67% | 9.54% | 5.04% | -66.5% | -2.4%
32 | CCCn1c(=O)c2ccc(C(=O)NC(C)C)cc2n2c(=O)n(Cc3cccc(F)c3)nc12 | -0.708% | 3.73% | 5.9% | -15.4% | -0.023%
33 | Cc1ccc(NC(=O)N2CCn3cccc3C2Cc2ccccc2)c(Cl)c1 (stereo not given) | 0.63% | 0% | 6.58% | -4.39% | 0.172%
34 | CN(CCc1ccccn1)[C@H]1[C@@H]2OC[C@@H](O2)[C@@H](NCc2ccc(-c3ccccc3)cc2)[C@@H]1O | -3.49% | -3.16% | -0.847% | -2.24% | -3.73%
35 | Cc1cc(S(=O)(=O)N2CCCC2c2noc(COc3ccc(F)cc3)n2)ccc1F (stereo not given) | -6.17% | -2.42% | -0.268% | -5.56% | 10.3%
36 | CCOCC(=O)N1CCC(N2C(=O)C3(CCCCC3)C2c2ccccc2)CC1 (stereo not given) | -0.608% | 2.72% | -0.674% | -3.76% | 4.78%
37 | C=C1CC2[C@]3(C)C(=C(O)C(=O)[C@@]2(C)[C@]2(C(=O)OC)C(=O)C(C)OC(=O)[C@@]12C)C(C)(C)C(=O)CC3O (stereo not given in full) | 0% | 5.48% | 9.54% | -7.89% | 5.25%
38 | O=C1CCN(C(=O)C2CCN(C(=O)c3ccc4ccccc4n3)CC2)CCCCCCN1 | -3.49% | -4.37% | -1.56% | -8.07% | 10.7%
39 | CC(C)Oc1ccc(CNC(=O)c2cc3n(n2)CC(C)(C(=O)NCc2ccccc2)N(C)C3=O)cc1 (stereo not given) | -3.32% | 1.68% | -3.08% | -1.16% | -1.06%
40 | CC1c2cccn2CCN1C(=O)Nc1ccccc1 (stereo not given) | -2.75% | 0% | 4.57% | -5.41% | 0.861%

Row | SMILES | activity change, negative = inhibition [1] | activity change, negative = inhibition [2] | activity change, negative = inhibition [3] | activity change, negative = inhibition [4] | activity change, negative = inhibition [5]
41 | COc1ccc([C@H]2OC[C@H]3O[C@@H](O[C@H]4[C@@H]2NC[C@@H]4O)[C@H](O)[C@H]3O)cc1 | 2.99% | -0.955% | 6.09% | -8.07% | 0.945%
42 | COc1ccccc1CN1C(=O)c2cc3sccc3n2CC1(C)C(=O)NC1CCC(C)CC1 (stereo not given) | -1.6% | 2.02% | -0.4% | -3.63% | -1.66%
43 | CCCN1C(=O)c2c(C(=O)NCc3cc(OC)ccc3OC)ncn2CC1(C)C(=O)NCc1ccc(F)cc1 (stereo not given) | 1.35% | 0.628% | 8.54% | 9.3% | 8.56%
44 | CCC(C)C(=O)O[C@H]1CCC=C2C=C[C@H](C)[C@H](CC[C@@H](O)C[C@@H](O)CC(=O)O)[C@H]21 (stereo not given in full) | -0.028% | 3.03% | 10.1% | -12% | -5.2%
45 | O=C(C1CCCC1)N1Cc2ccccc2CC2(CCCN(Cc3ccccc3)C2)C1 (stereo not given) | -6.17% | -7.56% | -7.93% | -15.3% | -6.75%
46 | CN1CCN(Cc2ccc(CC3CCN(S(=O)(=O)c4cccc(F)c4)CC3)cc2)CC1 | -3.45% | 0% | -0.477% | 0.691% | -0.591%
47 | O=C(CCCN1CCN(c2ccc(F)cc2)CC1)NC1c2ccccc2CSc2ccccc21 (stereo not given) | 0.654% | 5.68% | 2.98% | -14.9% | -5.39%
48 | CC(C)CNC(=O)c1ccc2c(=O)n(C(C)C)c3nn(Cc4cccc(Cl)c4)c(=O)n3c2c1 | -3.58% | 4.34% | -0.794% | -2.69% | 0.714%
49 | CCOCCCNC(=O)CCc1nnc2n(CCC(C)C)c(=O)c3ccccc3n12 | -4.07% | 1.34% | -3.18% | -1.89% | -6.78%
50 | CC(C)CNC(=O)c1ccc2c(=O)n(C(C)C)c3n[nH]c(=O)n3c2c1 | -2.45% | 0% | -1.48% | 0.832% | -8.06%
51 | CC(=O)Nc1c2n(c3ccc(F)cc13)CC(C)(C(=O)NC1CCCCC1)N(Cc1cccnc1)C2=O (stereo not given) | 0.889% | -4.23% | 7.74% | -2.94% | -1.89%
52 | C/C(=C\CO)CC/C=C(\C)C(=O)O[C@H]1[C@H](OC2OC=C(C(=O)O)C3CCC(C)(O)C23)O[C@H](CO)[C@@H](O)[C@@H]1O (stereo not given in full) | 5.43% | 5.43% | 14.8% | -5.92% | 7.55%
53 | COc1ccc(C2(C(=O)N3C[C@@H](Oc4cccnc4)C[C@H]3C(=O)NC3CC3)CC2)cc1 | 0.164% | -0.359% | -0.26% | -0.998% | -11.5%
54 | CCOC(=O)c1cc2n(n1)CC(C)(C(=O)NCc1ccc(C)cc1)N(c1ccc(C)cc1C)C2=O (stereo not given) | 1.71% | 2.72% | -3.14% | 0.475% | 2.09%
55 | CCOC(=O)c1cc2n(n1)CC(C)(C(=O)NC1CCCCCC1)N(Cc1cccc(OC)c1)C2=O (stereo not given) | -0.502% | 2.96% | -2.03% | -10% | -0.548%
56 | CCN1CCC2(CCC1=O)CN(Cc1ccc(C)c3ccccc13)CCN2C (stereo not given) | -3.81% | -1.09% | -4.81% | -9.77% | -2.79%
57 | CC(C)n1c(=O)c2ccc(C(=O)NC3CCCC3)cc2n2c(=O)n(Cc3ccccc3Cl)nc12 | 0.45% | 3.55% | 5.65% | 2.43% | 1.4%
58 | CC(C)c1ccc(-c2nnc3n(Cc4ccccc4)c(=O)c4ccccc4n23)cc1 | -8.17% | 0.969% | 1.35% | -8.21% | -3.95%
